This is an account of results in PMC4336329 (PLoS ONE, 2015).

SMILES strings stand for the structures. Among all 310,000 compounds or so, about 2,200 (0.71%) showed an effect of 50% or more. Effects have a minus sign here. This is one part of the list.

For the test, the target named is human ether-à-go-go-related gene (hERG) potassium channel (human, UniProt Q12809). The test is described as follows: primary screen, population patch clamp on CHO cells stably expressing hERG.
Sequence of human ether-à-go-go-related gene (hERG) potassium channel (Q12809 whole entry, looked up): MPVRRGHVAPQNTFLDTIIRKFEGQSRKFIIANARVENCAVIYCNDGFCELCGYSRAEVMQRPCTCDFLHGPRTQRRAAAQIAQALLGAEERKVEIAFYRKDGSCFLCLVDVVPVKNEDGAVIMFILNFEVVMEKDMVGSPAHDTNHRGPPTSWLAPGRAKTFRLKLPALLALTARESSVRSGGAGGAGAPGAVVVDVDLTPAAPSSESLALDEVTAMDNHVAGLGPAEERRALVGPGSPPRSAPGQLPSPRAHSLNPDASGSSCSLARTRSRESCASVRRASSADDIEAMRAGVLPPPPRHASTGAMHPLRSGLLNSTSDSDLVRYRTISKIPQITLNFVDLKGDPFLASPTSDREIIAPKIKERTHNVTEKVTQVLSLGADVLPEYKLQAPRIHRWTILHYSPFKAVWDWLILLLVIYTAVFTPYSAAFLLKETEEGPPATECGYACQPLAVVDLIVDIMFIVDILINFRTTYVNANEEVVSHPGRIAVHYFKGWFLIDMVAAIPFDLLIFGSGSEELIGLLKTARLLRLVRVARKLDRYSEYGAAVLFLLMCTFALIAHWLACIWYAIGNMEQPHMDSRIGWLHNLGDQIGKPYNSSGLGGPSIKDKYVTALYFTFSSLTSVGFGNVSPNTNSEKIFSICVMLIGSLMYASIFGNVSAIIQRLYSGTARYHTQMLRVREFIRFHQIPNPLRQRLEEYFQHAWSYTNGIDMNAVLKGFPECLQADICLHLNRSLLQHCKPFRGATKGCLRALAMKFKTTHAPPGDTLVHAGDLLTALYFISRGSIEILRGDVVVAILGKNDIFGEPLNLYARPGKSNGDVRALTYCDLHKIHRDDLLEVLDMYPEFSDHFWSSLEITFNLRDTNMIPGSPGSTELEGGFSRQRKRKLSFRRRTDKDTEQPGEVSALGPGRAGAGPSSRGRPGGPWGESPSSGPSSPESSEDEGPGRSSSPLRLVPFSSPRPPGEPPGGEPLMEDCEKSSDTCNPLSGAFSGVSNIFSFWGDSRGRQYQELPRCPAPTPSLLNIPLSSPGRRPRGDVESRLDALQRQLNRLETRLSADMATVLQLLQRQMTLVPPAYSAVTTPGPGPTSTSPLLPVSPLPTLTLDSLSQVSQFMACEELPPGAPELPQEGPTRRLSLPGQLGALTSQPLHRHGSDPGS
On to `O=C(Nc1cccc(S(=O)(=O)N2CCOCC2)c1)c1ccccc1[N+](=O)[O-]`, for which the “hERG current change (%, negative = inhibition) at 1uM” value was found to be 1.86%.
Under `c1ccc2c(c1)OCCc1c-2[nH]c2ccccc12` stands 13.2%; under `Cl.c1ccc2c(c1)c1c3n2CCNC3CCC1` (stereo not shown), 3.95%.
Regarding `CC(=O)Nc1ccccc1OC(C)C(=O)NC(C)c1ccc(F)cc1` (stereo not shown), the “hERG current change (%, negative = inhibition) at 1uM” value came to 8.06%.
In the case of `O=C(N/C(=C\c1ccco1)C(=O)N1CCOCC1)c1ccc([N+](=O)[O-])cc1`, the “hERG current change (%, negative = inhibition) at 1uM” value is reported as -55.9%.
For the compound `CCc1ccc2[nH]c(=O)c(CN(Cc3ccc(F)cc3)C(c3nnnn3CCN3CCOCC3)C(C)C)cc2c1` (stereo not shown), the “hERG current change (%, negative = inhibition) at 1uM” value came out at 5.2%.
Under `CCCOc1ccccc1C(=O)N(Cc1ccco1)C1CCS(=O)(=O)C1` (stereo not shown) stands 7.82%; under `COc1ccc(-n2nc(C)cc2Nc2ccccc2C(=O)O)cc1`, 12.3%.
Regarding `Cc1cc(O)c(-c2cc(C(=O)NCc3ccc4c(c3)OCO4)[nH]n2)cc1C`, the “hERG current change (%, negative = inhibition) at 1uM” value is -0.92%.
For the compound `C=CCOn1c(C)c(C(C)=O)c2c3no[n+]([O-])c3ccc21`, the “hERG current change (%, negative = inhibition) at 1uM” value is reported as 1.03%.
On to `C=CCn1c(SCC(=O)N2CCc3ccccc3C2)nnc1-c1ccncc1`, for which the “hERG current change (%, negative = inhibition) at 1uM” value is listed as -1.64%.
For the compound `COc1ccc(CC(=O)OC(C)CN2CCCC2)cc1.Cl` (stereo not shown), the “hERG current change (%, negative = inhibition) at 1uM” value was determined as 11.8%.
`CCC(CC)C(=O)Nc1c2c(nn1-c1ccc(C)cc1)CS(=O)(=O)C2`: the “hERG current change (%, negative = inhibition) at 1uM” value turned out to be 5.47%.
For `CC(C)C[C@@H](CSc1ccccc1)N1CCN(CC(C)C)CCC1=O` the value was -45.1%; for `CCC(C(=O)NC(C)(C)C)N(C(=O)Cn1nnc(-c2ccccc2F)n1)c1cccc2c1CCCC2` (stereo not shown), -1.6%; for `COc1ccc(OC)c(NC(=O)CN2C(=O)c3ccccc3S2(=O)=O)c1`, 4.15%.
Under `Br.Cc1cc(C)nc(SCc2csc(-c3ccccc3)n2)n1` stands 31.6%; under `Nc1ccc(S(=O)(=O)N2CC3CC(C2)c2cccc(=O)n2C3)cc1` (stereo not shown), 4.49%.
On to `C=CCn1c(O)c(C(C)=NCCCO)c(=O)[nH]c1=O`, for which the “hERG current change (%, negative = inhibition) at 1uM” value is listed as 1.37%.
`CC(C)(CNC(=O)c1ccc(S(=O)(=O)Nc2ccccc2F)cc1)N1CCOCC1`: the “hERG current change (%, negative = inhibition) at 1uM” value was found to be 13.6%.
As to `Cc1ccc(C)c(NC(=S)NNC(=O)c2cc3c(s2)CCC(C)C3)c1` (stereo not shown), the “hERG current change (%, negative = inhibition) at 1uM” value amounted to 4.05%.
For the compound `CCC1CCCCN1CCCNC(=O)Cn1ncc2c([nH]c3ccc(C)cc32)c1=O` (stereo not shown), the “hERG current change (%, negative = inhibition) at 1uM” value was determined as 4.73%.
As to `CCOC(=O)N1CCC(N2CCCC(C(=O)c3cccc(OC)c3)C2)CC1` (stereo not shown), the “hERG current change (%, negative = inhibition) at 1uM” value is listed as -13.2%.
Take `Cc1nc(SCC(=O)Nc2ccc(F)cc2)c2oc3ccccc3c2n1`: the “hERG current change (%, negative = inhibition) at 1uM” value came out at 13.5%.
Turning to `CCCCn1c(N)c(N(CCOC)C(=O)c2ccc3c(c2)C(=O)N(c2cc(C)ccc2C)C3=O)c(=O)[nH]c1=O`, the “hERG current change (%, negative = inhibition) at 1uM” value is reported as -2.7%.
For `COc1ccccc1NC(=O)C(C)OC(=O)CCNS(=O)(=O)c1ccc(C)c(C)c1` (stereo not shown) the value was 13.3%; for `Cc1ccc(/C=C(\NC(=O)c2ccccc2)C(=O)N2CCCCC2)cc1`, 2.71%; for `O=C(Cn1c(=O)c2c(ncn2Cc2ccccc2)n(Cc2ccccc2)c1=O)N1CCc2ccccc21`, 6.16%.
With `Cc1nc2nc(Cc3ccccc3)[nH]n2c(=O)c1Cl`, the “hERG current change (%, negative = inhibition) at 1uM” value was determined as 9.02%.
Under `CCCCOc1cc(C)nc(NCc2ccccc2)n1` stands 0.533%.
In the case of `CCOc1ccc(NC(=S)N(CCN2CCOCC2)Cc2ccc3c(c2)CCCN3CC)cc1`, the “hERG current change (%, negative = inhibition) at 1uM” value is given as 1.94%.
Turning to `CCC(CC)COC(=O)C1=C(C)NC(=O)NC1c1ccccc1Br` (stereo not shown), the “hERG current change (%, negative = inhibition) at 1uM” value is 17.7%.
Consider `O=C(O)c1ccccc1N1C(=O)c2cccc3cccc(c23)C1=O`, for which the “hERG current change (%, negative = inhibition) at 1uM” value was determined as 4.32%.
As to `COc1cccc(C(=O)Nc2c3c(nn2-c2ccccc2C)CS(=O)C3)c1OC` (stereo not shown), the “hERG current change (%, negative = inhibition) at 1uM” value turned out to be 11.1%.
With `CCCOc1ccc(C(C(=O)OCCN(CC)CC)c2ccccc2)cc1.O=C(O)C(=O)O` (stereo not shown), the “hERG current change (%, negative = inhibition) at 1uM” value was -11.8%.
For the compound `CC1CN(C(=O)c2cc(F)c(F)cc2Cl)CC(C)O1` (stereo not shown), the “hERG current change (%, negative = inhibition) at 1uM” value was found to be 5.11%.
For the compound `CC(C)CNC(=O)COC(=O)c1ccccc1OCC(=O)Nc1ccc(Br)cc1`, the “hERG current change (%, negative = inhibition) at 1uM” value came to 3.95%.
As for `CC(C(=O)Nc1ccc2c(c1)OCO2)n1cnc2c1c(=O)n(C)c(=O)n2C` (stereo not shown), the “hERG current change (%, negative = inhibition) at 1uM” value came to 11.9%.
Turning to `O=c1[nH]c(=O)n(CC2CCCO2)c(O)c1/C=C1\C=Nc2ccccc21` (stereo not shown) [26662360], the “hERG current change (%, negative = inhibition) at 1uM” value stood at 9.99%.
For `O=C(O)CCCNc1ccc(S(=O)(=O)Nc2ccccc2C(=O)O)cc1C(=O)O` the value was 2.13%; for `COc1ccc(C(C)(C)C)cc1NC(=O)c1ccc2c(c1)SC1=NS(=O)(=O)CCN12`, 13.3%; for `CCN(CC)CC.CCc1ccc(-n2c(=S)sc3c(=O)n(-c4ccccc4OC)c(=S)[nH]c32)cc1`, 6.81%.
As to `Cc1cc(NS(=O)(=O)c2cn(C)nc2C)no1`, the “hERG current change (%, negative = inhibition) at 1uM” value is given as 22.5%.
For `CCN1CCN(C(=O)/C=C\C(=O)O)CC1` the value was 13.2%; for `C[C@H](NC(=O)c1nc[nH]c1C(=O)NCc1ccccc1)C(=O)OCc1ccccc1`, 9.57%; for `O=c1cc([O-])nc(SCc2ccccc2)n1-c1ccccc1.[K+]`, 3.07%.
Regarding `CC(=O)Nc1ccc(S(=O)(=O)N2CCC(Oc3ccc(-n4cnnn4)cc3)CC2)cc1`, the “hERG current change (%, negative = inhibition) at 1uM” value is on record as -4.12%.
Consider `Cn1c(N/N=C/c2ccccc2)nc2sc3c(c2c1=O)CCC3`, for which the “hERG current change (%, negative = inhibition) at 1uM” value was determined as 3.19%.
For `O=c1c(-c2nnc(SCc3ccc(Cl)c(Cl)c3)o2)cccn1Cc1ccccc1` the value was 10.1%.
Under `COc1cc(C(C(=O)NC2CCCCC2)N(CCN2CCOCC2)C(=O)C2COc3ccccc3O2)cc(OC)c1OC` (stereo not shown) stands 26.1%.
On to `Nc1ccc2c(c1)C(=O)N(CC1CCCO1)C2=O` (stereo not shown), for which the “hERG current change (%, negative = inhibition) at 1uM” value was found to be 4.67%.
For `CCCSc1nc(C)cc(C)c1S(=O)(=O)c1ccccc1C`, the “hERG current change (%, negative = inhibition) at 1uM” value is recorded as 15.4%.
In the case of `Cc1ccc(OCCC(=O)Nc2ccc3c(c2)OCO3)cc1`, the “hERG current change (%, negative = inhibition) at 1uM” value was determined as 5.07%.
On to `CC(C)C[C@@H](C(=O)N[C@@H](C(=O)O)c1ccccc1)N1C(=O)N2CCc3c([nH]c4ccccc34)[C@@]2(C)C1=O`, for which the “hERG current change (%, negative = inhibition) at 1uM” value is given as -4.36%.
Under `CCN(CC)S(=O)(=O)c1ccc(O)c(C(=O)OCC(=O)Nc2cc(C)c(C)cc2[N+](=O)[O-])c1` stands 9.25%; under `COc1ccc(C)cc1NC(=O)CN1C(=O)C(=O)N(C2CCCC2)C1=O`, 9.16%; under `COc1ccccc1NC1=C(C)C(=O)CC1`, 12.1%.
With `COC(=O)c1ccc(Oc2nc(NC(C)C)nc(SC)n2)cc1`, the “hERG current change (%, negative = inhibition) at 1uM” value is recorded as 8.24%.
For `COc1ccccc1C(=O)N1CCN(c2ccc(N3CCOCC3)nn2)CC1`, the “hERG current change (%, negative = inhibition) at 1uM” value was 5.32%.
On to `CCC(CC)NC(=O)COC(=O)c1cccc(C)c1O`, for which the “hERG current change (%, negative = inhibition) at 1uM” value is reported as 7.4%.
Under `CCN1CCN(CCNC(=O)CCc2c(C)c3c(C)nn(-c4ccccc4)c3n(C)c2=O)CC1` stands 9.93%; under `CCCCCCOc1ccc(N2C(=O)CC(N3CCC(C(=O)OCC)CC3)C2=O)cc1` (stereo not shown), 9.46%; under `Cc1ccc(NC(=O)c2ccc(NS(=O)(=O)c3cccc4cccnc34)cc2)cc1`, 10.9%.
For `Cn1c(CNC(=O)c2ccccc2F)nnc1SCC(=O)Nc1nnc(C2CC2)s1` the value was 5.25%; for `CCOC(=O)C[C@H]1c2cc(F)ccc2S(=O)(=O)N1C1CCCCC1`, 9.65%; for `O=C(O)c1nn(-c2ccc(Cl)cc2)ccc1=O`, 6.99%.
For `N#CC(C#SN)=C1CCCCC1`, the “hERG current change (%, negative = inhibition) at 1uM” value came to 8.66%.
Under `Cc1ccc(C)c(C(=O)CSc2nnnn2C(C)C)c1` stands 13.1%; under `CCOC(=O)c1c(C)nc2sc3c(c2c1-c1ccc(OC)cc1)NC(c1ccccc1)NC3=O` (stereo not shown), 8.06%.
As to `OCCOCCn1c(C(CO)Nc2nc(-c3cccc(Br)c3)cs2)nc2ccccc21` (stereo not shown), the “hERG current change (%, negative = inhibition) at 1uM” value is 10.9%.
On to `CNS(=O)(=O)c1cn(CC(=O)NCc2ccc(OC)cc2)cc1S(=O)(=O)NC`, for which the “hERG current change (%, negative = inhibition) at 1uM” value is on record as 7.28%.
Take `O=C(O)CC(NC(=O)/C(=C/c1ccccc1)NC(=O)c1ccccc1)c1ccccc1` (stereo not shown): the “hERG current change (%, negative = inhibition) at 1uM” value came to 14.2%.
As to `Cc1ccc(C(=O)Nc2cc(C(C)C)c(O)c(C(C)C)c2)cc1`, the “hERG current change (%, negative = inhibition) at 1uM” value was found to be 9.48%.
Consider `COCCn1c(C)cc(C(=O)CSc2nc3ccccc3c(=O)[nH]2)c1C`, for which the “hERG current change (%, negative = inhibition) at 1uM” value is on record as 6.04%.
With `CCC(=O)NC(O)C(=O)c1ccc(C)cc1` (stereo not shown), the “hERG current change (%, negative = inhibition) at 1uM” value is recorded as 8.13%.
`COc1ccc(-c2nn(Cc3ccccc3)cc2C(=O)NC2CC2)cc1OC`: the “hERG current change (%, negative = inhibition) at 1uM” value turned out to be 2.07%.
Under `O/N=C(\C[n+]1ccccc1)c1ccc(Br)cc1.[Br-]` stands 10.5%.
With `O=C1c2ccccc2C(=O)N1Cc1nc(-c2ccccn2)no1`, the “hERG current change (%, negative = inhibition) at 1uM” value turned out to be 7.43%.
Take `O=C(N/N=C/c1sc(N2CCOCC2)nc1-c1ccccc1)c1ccccc1O`: the “hERG current change (%, negative = inhibition) at 1uM” value was 8.51%.
For `CC[C@H](C)/C=C(C)/C=C/C(=O)Cc1cc(O)c(C)c(O)c1C=O`, the “hERG current change (%, negative = inhibition) at 1uM” value was -3.56%.
With `CCOc1cc(C2NCc3ccccc3-n3cccc32)ccc1OC.Cl` (stereo not shown), the “hERG current change (%, negative = inhibition) at 1uM” value stood at 5.55%.
`COC(=O)c1ccc(NC(=O)CN(C2CCCCC2)S(C)(=O)=O)cc1`: the “hERG current change (%, negative = inhibition) at 1uM” value is 1.75%.
Consider `NC(=O)C1(N2CCCCC2)CCN(C(=O)c2ccc(C#CC3(O)CCCCC3)cc2)CC1`, for which the “hERG current change (%, negative = inhibition) at 1uM” value worked out at 3.69%.
In the case of `CCN1C(=O)C2C(C1=O)N1C(c3ccccc3)C3C(=O)N(CC)C(=O)C3N1C2c1ccccc1` (stereo not shown), the “hERG current change (%, negative = inhibition) at 1uM” value was 14.7%.
In the case of `CCCNC(=O)NC(=O)COC(=O)CC(NC(N)=O)c1ccc(Cl)cc1` (stereo not shown), the “hERG current change (%, negative = inhibition) at 1uM” value was 12.9%.
